# Assay results as given in the supplement of paper PMC8728848.
# The list shows a part of the results.
# B1: Arath Fbox LD (Arabidopsis thaliana) (protein)
# chain: EFSVWLEKASGKRCLMLSAMNLSIIWGDNPQYWQWIPIPESRFEKVAKLRDVCWFEIRGRTNTRVLSPRTRYSAYIVFKGVDKCYGFQNVAIEAAVGVVGQEPSRRLICFSEAIRRGRRNVVKPKQREDGWMEIELGEFFNDGGIMDNDEIEMSALETKQLNRKCGLIIQGIEIRPAKILAAASFLEQKLISEEDLNSAVDHHHHHH
# Assays:
# Assay in all cases: glycan array binding signal (z-score within array); higher = stronger binding
# Conditions in all cases: glycan notation: IUPAC condensed, linker removed
# [1] = biological target: Gal6S(b1-4)Glc6S
# Method in brief: (§1)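 Glycan array data were curated from 3228 arrays in the Consortium for Functional Glycomics database and kept only where the protein sequence was available. Glycan names were converted to IUPAC-condensed notation, and columns mapping to the same glycan were averaged. The binding signal is a within-array Z-score, averaged across arrays of the same protein sequence at different concentrations or buffers and across linkers. Negative Z-scores can be read as non-binding.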
# [2] = biological target: Gal6S(b1-4)GlcNAc
# Method in brief: as §1
# [3] = biological target: Gal6S(b1-4)GlcNAc6S
# Method in brief: as §1
# [4] = biological target: GalNAc(a1-3)Gal
# Method in brief: as §1
# [5] = biological target: GalNAc(a1-3)GalNAc
# Method in brief: as §1
# [6] = biological target: GalNAc(a1-3)GalNAc(b1-3)Gal(a1-4)Gal(b1-4)Glc
# Method in brief: as §1
# [7] = biological target: GalNAc(a1-3)GalNAc(b1-3)Gal(a1-4)Gal(b1-4)GlcNAc
# Method in brief: as §1
# [8] = biological target: GalNAc(b1-3)Gal
# Method in brief: as §1
# [9] = biological target: GalNAc(b1-3)Gal(a1-4)Gal(b1-4)GlcNAc
# Method in brief: as §1
# [10] = biological target: GalNAc(b1-3)Gal(a1-4)Gal(b1-4)GlcNAc(b1-3)Gal(b1-4)Glc
# Method in brief: as §1
# [11] = biological target: GalNAc(b1-3)Gal(a1-6)Gal(b1-4)Glc
# Method in brief: as §1
# [12] = biological target: GalNAc(b1-3)GalNAc
# Method in brief: as §1
# [13] = biological target: GalNAc(b1-3)GlcNAc
# Method in brief: as §1
# [14] = biological target: GalNAc(b1-4)Gal(b1-4)Glc
# Method in brief: as §1
# [15] = biological target: GalNAc(b1-4)GlcNAc
# Method in brief: as §1
# [16] = biological target: GalNAc(b1-4)GlcNAc(b1-2)Man
# Method in brief: as §1
# [17] = biological target: GalNAc(b1-4)GlcNAc(b1-2)Man(a1-3)[GalNAc(b1-4)GlcNAc(b1-2)Man(a1-6)]Man(b1-4)GlcNAc(b1-4)GlcNAc
# Method in brief: as §1
# [18] = biological target: GalNAc(b1-4)GlcNAc(b1-3)GalNAc(b1-4)GlcNAc
# Method in brief: as §1
# [19] = biological target: GalNAc(b1-4)GlcNAc6S
# Method in brief: as §1
# [20] = biological target: GalNAc(b1-6)GalNAc
# Method in brief: as §1
# [21] = biological target: GalNAc3S(b1-4)GlcNAc
# Method in brief: as §1
# [22] = biological target: GalNAc3S(b1-4)GlcNAc3S
# Method in brief: as §1
# [23] = biological target: GalNAc3S(b1-4)[Fuc(a1-3)]GlcNAc
# Method in brief: as §1
# [24] = biological target: GalNAc4S6S(b1-4)GlcNAc
# Method in brief: as §1
# [25] = biological target: GalNAc6S(b1-4)GlcNAc
# Method in brief: as §1
# [26] = biological target: Glc(a1-4)Glc
# Method in brief: as §1
# [27] = biological target: Glc(a1-4)Glc(a1-4)Glc(a1-4)Glc
# Method in brief: as §1
# [28] = biological target: Glc(a1-6)Glc(a1-6)Glc
# Method in brief: as §1
# [29] = biological target: Glc(a1-6)Glc(a1-6)Glc(a1-6)Glc
# Method in brief: as §1
# [30] = biological target: Glc(b1-4)Glc
# Method in brief: as §1
# [31] = biological target: Glc(b1-6)Glc
# Method in brief: as §1
# [32] = biological target: GlcA(b1-3)Gal
# Method in brief: as §1
# [33] = biological target: GlcA(b1-3)GlcNAc
# Method in brief: as §1
# [34] = biological target: GlcA(b1-6)Gal
# Method in brief: as §1
# [35] = biological target: GlcA3S(b1-3)Gal(b1-4)GlcNAc(b1-2)Man
# Method in brief: as §1
# [36] = biological target: GlcA3S(b1-3)Gal(b1-4)GlcNAc(b1-3)Gal(b1-4)Glc
# Method in brief: as §1
# [37] = biological target: GlcNAc(a1-3)Gal(b1-4)GlcNAc
# Method in brief: as §1
# [38] = biological target: GlcNAc(a1-4)Gal(b1-3)GlcNAc
# Method in brief: as §1
# [39] = biological target: GlcNAc(a1-4)Gal(b1-4)GalNAc
# Method in brief: as §1
# [40] = biological target: GlcNAc(a1-4)Gal(b1-4)GlcNAc
# Method in brief: as §1
# [41] = biological target: GlcNAc(a1-4)Gal(b1-4)GlcNAc(b1-3)Gal(b1-4)Glc
# Method in brief: as §1
# [42] = biological target: GlcNAc(a1-4)Gal(b1-4)GlcNAc(b1-3)Gal(b1-4)GlcNAc
# Method in brief: as §1
# [43] = biological target: GlcNAc(a1-4)Gal(b1-4)GlcNAc(b1-3)Gal(b1-4)GlcNAc(b1-3)Gal(b1-4)GlcNAc
# Method in brief: as §1
# [44] = biological target: GlcNAc(a1-4)Gal(b1-4)GlcNAc(b1-3)Gal(b1-4)[Fuc(a1-3)]GlcNAc(b1-3)Gal(b1-4)[Fuc(a1-3)]GlcNAc
# Method in brief: as §1
# [45] = biological target: GlcNAc(a1-6)Gal(b1-4)GlcNAc
# Method in brief: as §1
binder,measurement,setting,value
B1,glycan array binding signal (z-score),[1],1.23
same,glycan array binding signal (z-score),[2],0.271
same,glycan array binding signal (z-score),[3],0.739
same,glycan array binding signal (z-score),[4],0.687
same,glycan array binding signal (z-score),[5],1.9
same,glycan array binding signal (z-score),[6],-0.242
same,glycan array binding signal (z-score),[7],-0.368
same,glycan array binding signal (z-score),[8],0.377
same,glycan array binding signal (z-score),[9],-0.408
same,glycan array binding signal (z-score),[10],-0.637
same,glycan array binding signal (z-score),[11],-0.549
same,glycan array binding signal (z-score),[12],0.547
same,glycan array binding signal (z-score),[13],-0.567
same,glycan array binding signal (z-score),[14],0.019
same,glycan array binding signal (z-score),[15],-0.572
same,glycan array binding signal (z-score),[16],-0.446
same,glycan array binding signal (z-score),[17],-0.331
same,glycan array binding signal (z-score),[18],-0.612
same,glycan array binding signal (z-score),[19],-0.574
same,glycan array binding signal (z-score),[20],-0.007
same,glycan array binding signal (z-score),[21],-0.617
same,glycan array binding signal (z-score),[22],-0.519
same,glycan array binding signal (z-score),[23],1.17
same,glycan array binding signal (z-score),[24],-0.367
same,glycan array binding signal (z-score),[25],-0.313
same,glycan array binding signal (z-score),[26],-0.476
same,glycan array binding signal (z-score),[27],-0.529
same,glycan array binding signal (z-score),[28],-0.548
same,glycan array binding signal (z-score),[29],-0.436
same,glycan array binding signal (z-score),[30],-0.179
same,glycan array binding signal (z-score),[31],-0.208
same,glycan array binding signal (z-score),[32],-0.189
same,glycan array binding signal (z-score),[33],-0.21
same,glycan array binding signal (z-score),[34],1.15
same,glycan array binding signal (z-score),[35],0.101
same,glycan array binding signal (z-score),[36],-0.029
same,glycan array binding signal (z-score),[37],-0.356
same,glycan array binding signal (z-score),[38],-0.064
same,glycan array binding signal (z-score),[39],0.26
same,glycan array binding signal (z-score),[40],-0.391
same,glycan array binding signal (z-score),[41],-0.551
same,glycan array binding signal (z-score),[42],-0.37
same,glycan array binding signal (z-score),[43],-0.602
same,glycan array binding signal (z-score),[44],0.64
same,glycan array binding signal (z-score),[45],-0.354
